Measurements published in the supplement of paper PMC4166925.
± gives the standard deviation of the averaged measurements. Over roughly 33,000 sequences, “E-score (dimensionless, -0.5 to 0.5)” has its median near -0.049; the highest 2% begin near 0.37. This is one part of the list.

system: T1, PmTbr T-box DNA-binding domain (GST fusion); test: PBM E-score of 8-mer (E-score (dimensionless, -0.5 to 0.5)); Tbr is Tbrain of the sea star Patiria miniata (Pm) or the sea urchin Strongylocentrotus purpuratus (Sp); higher = stronger binding preference; most listed sequences are background and not binding sites; settings: the construct has about 5 more residues each side
T1 sequence: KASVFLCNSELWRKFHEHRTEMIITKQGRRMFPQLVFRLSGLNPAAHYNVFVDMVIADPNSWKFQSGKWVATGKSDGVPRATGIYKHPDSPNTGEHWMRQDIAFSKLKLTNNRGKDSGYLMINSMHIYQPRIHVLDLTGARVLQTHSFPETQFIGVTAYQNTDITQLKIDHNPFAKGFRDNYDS
In short: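 Universal Agilent oligonucleotide arrays, made double-stranded by primer extension, were incubated with 200 nM GST-fused Tbr T-box DNA-binding domain in PBS (pH 7.5). The protein was expressed in BL21 E. coli at 20 °C and purified by glutathione affinity chromatography. After scanning and quantification, the Universal PBM Analysis Suite assigned an enrichment E-score to each ungapped 8-mer, averaged over duplicate arrays.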

Sequence	PBM E-score of 8-mer
CCGATCTC	-0.139 ± 0.05
CGGTACAG	-0.2 ± 0.043
AGTGAATC	-0.0519 ± 0.0038
CGGTTAAG	-0.106 ± 0.071
AAGGACCT	-0.293 ± 0.035
CACATCCG	0.23 ± 0.014
GAATCCCC	-0.042 ± 0.088
GCAAGAGC	-0.144 ± 0.11
CGATGACG	0.0958 ± 0.0023
GCCAGTCA	0.0625 ± 0.0016
ACTCAGTC	0.0109 ± 0.044
AGCATAAT	-0.0872 ± 0.074
GCCCTCTA	-0.184 ± 0.013
ACGCTCAG	0.05 ± 0.0094
GCAGGGCA	-0.118 ± 0.044
AAAACATG	-0.0125 ± 0.029
CAGTTACA	0.056 ± 0.018
GCGATTCA	0.04 ± 0.0093
AGCTGATC	-0.124 ± 0.059
CTCTCGAC	0.0791 ± 0.013
AGATATCG	0.105 ± 0.0051
AGGGACCG	-0.32 ± 0.038

Sequence	PBM E-score of 8-mer
CGACGGGA	-0.129 ± 0.036
AGTAGTAA	-0.0631 ± 0.039
CACTGTGA	0.234 ± 0.022
CTCTTGAA	-0.374 ± 0.012
AATTAGAC	-0.052 ± 0.019
AGGAGCGA	0.00809 ± 0.0052
ATTGGTCA	0.00472 ± 0.024
ATCCGGCA	-0.0845 ± 0.015
ATGACTAG	-0.149 ± 0.1
ATCATCGA	-0.127 ± 0.086
TACGCAAA	-0.118 ± 0.039
ATAGAACG	-0.0824 ± 0.027
AGTCGAGA	-0.0238 ± 0.021
TAGTGGCA	0.248 ± 0.016
AAAGGCAG	-0.198 ± 0.036
TCAACGGA	-0.111 ± 0.0019
CAACGATC	-0.125 ± 0.086
AGCTGTCA	0.3661 ± 0.003
AACGGCTC	0.187 ± 0.048
CTCCACTC	-0.0788 ± 0.081
CGCCTTAG	0.256 ± 0.018
AACGCCCA	0.0946 ± 0.066

Sequence	PBM E-score of 8-mer
CAGAAACC	-0.149 ± 0.044
CGTTCGGA	0.035 ± 0.041
CACAGGGA	-0.19 ± 0.017
CAAGGCTG	0.0203 ± 0.035
GGCAGTCA	-0.0914 ± 0.0055
CGTGCGTC	-0.0734 ± 0.052
CATTCACC	-0.0785 ± 0.054
AACGTACA	0.0134 ± 0.073
GGTAACTA	-0.232 ± 0.022
CGGCCGGC	0.0108 ± 0.011
CCTAAAAG	-0.119 ± 0.033
CAGGAAAG	0.118 ± 0.042
ACGCGTGA	0.38 ± 0.012
ACTGTGGC	0.0104 ± 0.017
CGTTGATC	-0.108 ± 0.083
CCTAGCCC	-0.153 ± 0.033
AAAGATGT	0.0868 ± 0.054
GAGGAGCC	-0.228 ± 0.007
CACAGGCA	-0.0862 ± 0.047
AACGGAGA	-0.248 ± 0.08
ATATCGCG	0.309 ± 0.015
ACTCCAGG	-0.112 ± 0.051

Sequence	PBM E-score of 8-mer
GCTAGTAA	-0.216 ± 0.012
CAATCTAA	-0.204 ± 0.018
AGTGTATA	-0.069 ± 0.08
GAGTTCGC	0.222 ± 0.04
CGCGTGAG	0.282 ± 0.004
AGCGAGCT	-0.0276 ± 0.057
AGGTTCAC	0.144 ± 0.04
AAACTACT	0.0819 ± 0.0066
GACCGGTA	-0.176 ± 0.05
AATTCCGC	0.0274 ± 0.059
AAAAGCAT	-0.258 ± 0.053
GATTCAAC	-0.147 ± 0.014
GTGCGGAA	0.306 ± 0.0038
ATGACCAC	-0.0935 ± 0.029
GGACCATA	-0.146 ± 0.019
CAGTCTGC	-0.305 ± 0.032
AGGGACAC	-0.0342 ± 0.049
GGGGCTTA	-0.162 ± 0.03
ACTTCACG	0.262 ± 0.038
AAACACCG	0.143 ± 0.013
ACGATAGC	0.0723 ± 0.022
AGCGACGC	0.15 ± 0.044

Sequence	PBM E-score of 8-mer
ACTTTAGA	-0.0463 ± 0.044
ACGCATTC	0.0134 ± 0.0026
CACAGATA	-0.0278 ± 0.029
GGATCACC	-0.126 ± 0.049
CTTAATTC	-0.162 ± 0.036
GACAGCGA	0.05665 ± 0.00051
GGAATCCC	-0.151 ± 0.035
ACCTATTG	0.129 ± 0.034
GGTTATTA	-0.283 ± 0.018
ATCACCCA	0.276 ± 0.021
GTACGACA	-0.0297 ± 0.045
AGCACCCG	0.252 ± 0.061
GCGGCTCC	0.00186 ± 0.083
CGCTTAGC	0.149 ± 0.048
ACGAATAT	-0.0393 ± 0.022
CCGTGGCA	-0.0162 ± 0.08
AGCTCTAT	-0.131 ± 0.033
AGGTAAAC	0.0123 ± 0.059
CATATCCG	-0.0177 ± 0.053
GAATCCAC	-0.0603 ± 0.036
CGTGCAAG	0.127 ± 0.024
CAACGTGC	0.192 ± 0.017
